# This is one part of the list. The full chains were built here from the parent and the listed change. Inactive controls read about 0.05.
# B1: TEV protease; numbered along this chain (parent)
# chain: MGESLFKGPRDYNPISSSICHLTNESDGHTTSLYGIGFGPFIITNKHLFRRNNGTLVVQSLHGVFKVKDTTTLQQHLVDGRDMIIIRMPKDFPPFPQKLKFREPQREERICLVTTNFQTKSMSSMVSDTSCTFPSGDGIFWKHWIQTKDGQCGSPLVSTRDGFIVGIHSASNFTNTNNYFTSVPKNFMELLTNQEAQQWVSGWRLNADSVLWGGHKVFMVKPEEPFQPVKEATQL
# Variants of: B1
# Test: raw area under fraction-flipped curve 0-4 h after induction (AUC4h, not background-subtracted), DNA-recorder readout of cleavage of the substrate (dimensionless); higher = more cleavage of the substrate by the protease variant
# Conditions: temperature: 34 °C; time window: 0-4 h after rhamnose induction
# Procedure: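 In vivo DNA recorder in E. coli TOP10(DE3) ΔrhaA at 34 °C. Each TEVp single-site mutant (parent TEVp 0) is paired with a single-site variant of the 7-mer TEVs (canonical ENLYFQ|S). The substrate sits between flexible linkers in a Bxb1-sfGFP-TEVs-SsrA fusion, so cleavage stabilises Bxb1 and speeds flipping of a recombination array, read by NGS. The value is the raw area under the fraction-flipped curve over 0-4 h after rhamnose induction (AUC4h), with ≥20 reads per time point. It is not background-subtracted; inactive controls average about 0.047.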
# 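Further: Bxb1 expression induced with 0.2% (w/v) L-rhamnose at OD600 near 0.5, cultures sampled hourly, flipped fraction per protease–substrate barcode pair counted by paired-end Illumina sequencing.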
variant,measurement,value
MGESLFKGPRDYNPISSSICHLTNESDGHTTSLYGIGFGPFIITNKHLFRRNNGTLVVQSLHGVFKVKDTTTLQQHLVDGRDMINIRMPKDFPPFPQKLKFREPQREERICLVTTNFQTKSMSSMVSDTSCTFPSGDGIFWKHWIQTKDGQCGSPLVSTRDGFIVGIHSASNFTNTNNYFTSVPKNFMELLTNQEAQQWVSGWRLNADSVLWGGHKVFMVKPEEPFQPVKEATQL [I85N],area with substrate ENLYFQA,0.0356
same,area with substrate ENLYFQC,0.0572
same,area with substrate ENLYFQG,0.0506
same,area with substrate ENLYFQI,0.0372
same,area with substrate ENLYFQL,0.0459
same,area with substrate ENLYFQM,0.0469
same,area with substrate ENLYFQN,0.0515
same,area with substrate ENLYFQR,0.0843
same,area with substrate ENLYFQS,0.0531
same,area with substrate ENLYFQT,0.0484
MGESLFKGPRDYNPISSSICHLTNESDGHTTSLYGIGFGPFIITNKHLFRRNNGTLVVQSLHGVFKVKDTTTLQQHLVDGRDMISIRMPKDFPPFPQKLKFREPQREERICLVTTNFQTKSMSSMVSDTSCTFPSGDGIFWKHWIQTKDGQCGSPLVSTRDGFIVGIHSASNFTNTNNYFTSVPKNFMELLTNQEAQQWVSGWRLNADSVLWGGHKVFMVKPEEPFQPVKEATQL [I85S],area with substrate ENLYFQA,0.0653
same,area with substrate ENLYFQC,0.0577
same,area with substrate ENLYFQG,0.0439
same,area with substrate ENLYFQI,0.0547
same,area with substrate ENLYFQK,0.0571
same,area with substrate ENLYFQL,0.0648
same,area with substrate ENLYFQN,0.0406
same,area with substrate ENLYFQR,0.056
same,area with substrate ENLYFQS,0.054
same,area with substrate ENLYFQV,0.0695
MGESLFKGPRDYNPISSSICHLTNESDGHTTSLYGIGFGPFIITNKHLFRRNNGTLVVQSLHGVFKVKDTTTLQQHLVDGRDMIIPRMPKDFPPFPQKLKFREPQREERICLVTTNFQTKSMSSMVSDTSCTFPSGDGIFWKHWIQTKDGQCGSPLVSTRDGFIVGIHSASNFTNTNNYFTSVPKNFMELLTNQEAQQWVSGWRLNADSVLWGGHKVFMVKPEEPFQPVKEATQL [I86P],area with substrate ENLYFQA,0.042
same,area with substrate ENLYFQG,0.0461
same,area with substrate ENLYFQI,0.0362
same,area with substrate ENLYFQK,0.0402
same,area with substrate ENLYFQL,0.0392
same,area with substrate ENLYFQN,0.0296
same,area with substrate ENLYFQQ,0.0396
same,area with substrate ENLYFQS,0.038
same,area with substrate ENLYFQV,0.0358
same,area with substrate ENLYFQW,0.0383
same,area with substrate ENLYFQY,0.0338
MGESLFKGPRDYNPISSSICHLTNESDGHTTSLYGIGFGPFIITNKHLFRRNNGTLVVQSLHGVFKVKDTTTLQQHLVDGRDMIIHRMPKDFPPFPQKLKFREPQREERICLVTTNFQTKSMSSMVSDTSCTFPSGDGIFWKHWIQTKDGQCGSPLVSTRDGFIVGIHSASNFTNTNNYFTSVPKNFMELLTNQEAQQWVSGWRLNADSVLWGGHKVFMVKPEEPFQPVKEATQL [I86H],area with substrate ENLYFQA,0.0578
same,area with substrate ENLYFQC,0.0492
same,area with substrate ENLYFQE,0.0458
same,area with substrate ENLYFQG,0.0342
same,area with substrate ENLYFQI,0.0367
same,area with substrate ENLYFQK,0.0407
same,area with substrate ENLYFQL,0.0407
same,area with substrate ENLYFQM,0.0378
same,area with substrate ENLYFQN,0.0314
same,area with substrate ENLYFQR,0.0401
same,area with substrate ENLYFQS,0.0444
same,area with substrate ENLYFQT,0.042
same,area with substrate ENLYFQV,0.0428
same,area with substrate ENLYFQW,0.0212
MGESLFKGPRDYNPISSSICHLTNESDGHTTSLYGIGFGPFIITNKHLFRRNNGTLVVQSLHGVFKVKDTTTLQQHLVDGRDMIIILMPKDFPPFPQKLKFREPQREERICLVTTNFQTKSMSSMVSDTSCTFPSGDGIFWKHWIQTKDGQCGSPLVSTRDGFIVGIHSASNFTNTNNYFTSVPKNFMELLTNQEAQQWVSGWRLNADSVLWGGHKVFMVKPEEPFQPVKEATQL [R87L],area with substrate ENLYFQA,0.0882
same,area with substrate ENLYFQD,0.0656
same,area with substrate ENLYFQF,0.0848
same,area with substrate ENLYFQG,0.109
same,area with substrate ENLYFQH,0.0855
same,area with substrate ENLYFQI,0.0473
same,area with substrate ENLYFQK,0.0639
same,area with substrate ENLYFQN,0.104
same,area with substrate ENLYFQR,0.0628
same,area with substrate ENLYFQS,0.102
same,area with substrate ENLYFQT,0.0445
same,area with substrate ENLYFQW,0.0606
MGESLFKGPRDYNPISSSICHLTNESDGHTTSLYGIGFGPFIITNKHLFRRNNGTLVVQSLHGVFKVKDTTTLQLHLVDGRDMIIIRMPKDFPPFPQKLKFREPQREERICLVTTNFQTKSMSSMVSDTSCTFPSGDGIFWKHWIQTKDGQCGSPLVSTRDGFIVGIHSASNFTNTNNYFTSVPKNFMELLTNQEAQQWVSGWRLNADSVLWGGHKVFMVKPEEPFQPVKEATQL [Q75L],area with substrate ENLYFQA,0.0863
same,area with substrate ENLYFQS,0.13
MGESLFKGPRDYNPISSSICHLTNESDGHTTSLYGIGFGPFIITNKHLFRRNNGTLVVQSLHGVFKVKDTTTLQSHLVDGRDMIIIRMPKDFPPFPQKLKFREPQREERICLVTTNFQTKSMSSMVSDTSCTFPSGDGIFWKHWIQTKDGQCGSPLVSTRDGFIVGIHSASNFTNTNNYFTSVPKNFMELLTNQEAQQWVSGWRLNADSVLWGGHKVFMVKPEEPFQPVKEATQL [Q75S],area with substrate ENLYFQA,0.112
same,area with substrate ENLYFQD,0.0644
same,area with substrate ENLYFQF,0.0472
same,area with substrate ENLYFQG,0.0749
same,area with substrate ENLYFQH,0.0659
same,area with substrate ENLYFQK,0.0534
same,area with substrate ENLYFQL,0.0564
same,area with substrate ENLYFQN,0.0744
same,area with substrate ENLYFQR,0.069
same,area with substrate ENLYFQS,0.083
same,area with substrate ENLYFQT,0.0499
same,area with substrate ENLYFQW,0.041
MGESLFKGPRDYNPISSSICHLTNESDGHTTSLYGIGFGPFIITNKHLFRRNNGTLVVQSLHGVFKVKDTTTLTQHLVDGRDMIIIRMPKDFPPFPQKLKFREPQREERICLVTTNFQTKSMSSMVSDTSCTFPSGDGIFWKHWIQTKDGQCGSPLVSTRDGFIVGIHSASNFTNTNNYFTSVPKNFMELLTNQEAQQWVSGWRLNADSVLWGGHKVFMVKPEEPFQPVKEATQL [Q74T],area with substrate ENLYFQA,0.0525
same,area with substrate ENLYFQK,0.0649
same,area with substrate ENLYFQM,0.0764
same,area with substrate ENLYFQS,0.0814
same,area with substrate ENLYFQW,0.0577
MGESLFKGPRDYNPISSSICHLTNESDGHTTSLYGIGFGPFIITNKHLFRRNNGTLVVQSLHGVFKVKDTTTLQQHLVDGRDMMIIRMPKDFPPFPQKLKFREPQREERICLVTTNFQTKSMSSMVSDTSCTFPSGDGIFWKHWIQTKDGQCGSPLVSTRDGFIVGIHSASNFTNTNNYFTSVPKNFMELLTNQEAQQWVSGWRLNADSVLWGGHKVFMVKPEEPFQPVKEATQL [I84M],area with substrate ENLYFQA,0.0781
same,area with substrate ENLYFQC,0.101
same,area with substrate ENLYFQG,0.0833
same,area with substrate ENLYFQK,0.0749
same,area with substrate ENLYFQL,0.0416
same,area with substrate ENLYFQM,0.072
same,area with substrate ENLYFQN,0.0579
same,area with substrate ENLYFQS,0.0856
same,area with substrate ENLYFQT,0.0667
same,area with substrate ENLYFQY,0.0697
MGESLFKGPRDYNPISSSICHLTNESDGHTTSLYGIGFGPFIITNKHLFRRNNGTLVVQSLHGVFKVKDTTTLQQHLHDGRDMIIIRMPKDFPPFPQKLKFREPQREERICLVTTNFQTKSMSSMVSDTSCTFPSGDGIFWKHWIQTKDGQCGSPLVSTRDGFIVGIHSASNFTNTNNYFTSVPKNFMELLTNQEAQQWVSGWRLNADSVLWGGHKVFMVKPEEPFQPVKEATQL [V78H],area with substrate ENLYFQA,0.0667
same,area with substrate ENLYFQC,0.0785
same,area with substrate ENLYFQG,0.0661
same,area with substrate ENLYFQH,0.0617
same,area with substrate ENLYFQK,0.0673
same,area with substrate ENLYFQM,0.0655
same,area with substrate ENLYFQN,0.0701
same,area with substrate ENLYFQP,0.0611
same,area with substrate ENLYFQR,0.0583
same,area with substrate ENLYFQS,0.0695
